The densities may have been worked out from excess volumes.
Experiment: xn = mol fraction of the nth substance listed
Conditions: 100.9 kPa

CC(=O)[O-].CC[NH2+]CC + O
mass density [kg/m3]
Conditions	x1 = 0.015	x1 = 0.055	x1 = 0.119	x1 = 0.168	x1 = 0.24	x1 = 0.35	x1 = 0.549	x1 = 0.708	x1 = 0.835	x1 = 1
293.15 K	1003	1015	1021	1020	1013	999	985	972	965	949
298.15 K	1001	1012	1018	1017	1010	–	982	–	961	–
303.15 K	999	1010	1015	–	1006	994	979	965	–	–
308.15 K	998	1008	1012	1010	1003	990	976	962	–	–
313.15 K	996	1005	1009	1007	1000	987	–	958	951	–
318.15 K	994	1002	1006	1004	997	984	970	955	947	932
323.15 K	992	999	1003	1001	993	981	966	952	944	–

From a compilation of properties of binary mixtures (doi:10.1016/j.jct.2020.106093)
